Results as given in PMC4336329 (PLoS ONE, 2015).
In all, about 310,000 compounds went through this assay and about 2,200 (0.71%) showed an effect of 50% or more. Effects have a minus sign here. The list shows a part of the results.

molecular target: human ether-à-go-go-related gene (hERG) potassium channel (human, UniProt Q12809); test: primary screen, population patch clamp on CHO cells stably expressing hERG
Sequence (Q12809 whole entry, looked up): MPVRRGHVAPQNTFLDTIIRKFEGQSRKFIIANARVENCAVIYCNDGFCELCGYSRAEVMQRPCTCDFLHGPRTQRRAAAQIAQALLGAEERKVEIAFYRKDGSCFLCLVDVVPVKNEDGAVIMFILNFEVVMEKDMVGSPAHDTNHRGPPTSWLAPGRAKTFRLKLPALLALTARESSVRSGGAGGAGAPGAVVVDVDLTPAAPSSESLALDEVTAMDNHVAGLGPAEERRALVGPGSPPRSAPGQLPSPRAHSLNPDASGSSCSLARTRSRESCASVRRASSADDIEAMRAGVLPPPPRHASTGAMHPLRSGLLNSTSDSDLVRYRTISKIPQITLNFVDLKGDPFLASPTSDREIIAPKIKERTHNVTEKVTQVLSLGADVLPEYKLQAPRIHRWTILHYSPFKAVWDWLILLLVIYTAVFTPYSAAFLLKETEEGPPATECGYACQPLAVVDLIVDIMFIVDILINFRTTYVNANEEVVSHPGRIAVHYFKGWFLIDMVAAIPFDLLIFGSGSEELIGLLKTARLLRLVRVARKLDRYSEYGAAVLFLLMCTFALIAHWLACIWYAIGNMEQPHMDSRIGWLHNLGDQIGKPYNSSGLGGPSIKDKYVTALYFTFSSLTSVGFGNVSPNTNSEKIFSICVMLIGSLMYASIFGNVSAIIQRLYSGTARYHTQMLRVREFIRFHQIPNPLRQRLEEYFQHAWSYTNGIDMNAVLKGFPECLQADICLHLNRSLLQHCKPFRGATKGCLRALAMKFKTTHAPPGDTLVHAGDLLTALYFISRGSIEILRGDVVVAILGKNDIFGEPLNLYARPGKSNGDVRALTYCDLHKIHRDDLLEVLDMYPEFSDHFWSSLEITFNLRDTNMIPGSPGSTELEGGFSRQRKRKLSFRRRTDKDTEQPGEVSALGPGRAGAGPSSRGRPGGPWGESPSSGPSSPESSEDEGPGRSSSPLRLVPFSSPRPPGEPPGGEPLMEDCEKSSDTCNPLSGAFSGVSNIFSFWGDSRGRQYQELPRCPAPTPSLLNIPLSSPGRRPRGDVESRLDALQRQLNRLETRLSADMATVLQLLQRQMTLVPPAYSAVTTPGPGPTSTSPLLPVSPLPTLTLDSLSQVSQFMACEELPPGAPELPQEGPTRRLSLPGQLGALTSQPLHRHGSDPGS

Row | Compound | hERG current change (%, negative = inhibition) at 1uM [%]
1 | O=C(Nc1nncs1)C12CC3CC(CC(Cl)(C3)C1)C2 | 13.6
2 | CCCCNC(=O)CN(C1CCCCC1)S(C)(=O)=O | 8.87
3 | Cc1cccc(NC(=O)CCCC(=O)OC(C)C(=O)c2ccccc2)c1 (stereo not drawn) | 11.2
4 | Cc1ccc2cc(C=O)c(Cl)nc2c1 | 7.01
5 | CN(C)S(=O)(=O)c1ccc(NC(=O)CSc2nc3ccccc3n2-c2ccccc2)cc1 | 14.5
6 | Cc1ccccc1C1=N/C(=C/c2cccnc2)C(=O)O1 | 8.44
7 | CC(=O)NC(=S)Nc1cc(C(=O)O)ccc1Cl | 4.7
8 | O=C(NCC(=O)N(CC1CCCO1)C1(C(=O)NC2CCCC2)CCCCC1)c1ccccc1 (stereo not drawn) | 7.47
9 | CC(C)C(c1nnnn1Cc1ccc2c(c1)OCO2)N1CCN(C)CC1.Cl (stereo not drawn) | -1.23
10 | Cc1cccc(OCC(=O)N/N=C\c2cn(C)c3ccccc23)c1 | 6.95
11 | COCCOC(=O)C1=C(C)N=C2SCCC(=O)N2C1/C=C/c1ccccc1 (stereo not drawn) | -3.18
12 | CC(C)CNC(=O)CN(c1cccc(Cl)c1)S(C)(=O)=O | 18.9
13 | CCOc1ccc(-n2cc(C(=O)Nc3cccc(Cl)c3)c3cc(OC)c(OC)cc3c2=O)cc1 | 0.151
14 | CCC(=O)Nc1ccc2nc(SCC(=O)N3CCCC3)sc2c1 | -2.75
15 | CC(C)OP(=O)(OC(C)C)C(Nc1ccccc1)c1cccc([N+](=O)[O-])c1 (stereo not drawn) | 12
16 | N#Cc1cccc(NC(=O)Cn2c3[n+](c4ccc(C(F)(F)F)cc42)CCCCC3)c1.[Cl-] | 1.96
17 | NC(=O)CSc1nnc(Cc2csc(Nc3ccccc3)n2)n1Cc1ccccc1 | 5.15
18 | O=C(NNC1CC(=O)N(c2ccc(Cl)cc2)C1=O)c1ccccn1 (stereo not drawn) | 5.81
19 | CCCCc1c(C)nc2ccccc2c1SCCC(=O)O | 9.45

Row | Compound | hERG current change (%, negative = inhibition) at 1uM [%]
20 | O=C1c2cccc(Cl)c2C(=O)c2c1cccc2N1CCCC1 | 6.17
21 | Cc1cccc(OCC(=O)NNC(=O)C2CCN(c3ncnc4sc(C)c(C)c34)CC2)c1 | 4.58
22 | O=C(Oc1ccc(N(C(=O)c2ccncc2)S(=O)(=O)c2cccs2)cc1)c1ccncc1 | 11.4
23 | COC(=O)c1ccc(NC(=O)N2CCCC(C(=O)c3ccccc3OC)C2)cc1 (stereo not drawn) | 5.54
24 | CCOc1cc(/C=N\NC(=O)C2C(=O)NCC2c2ccccc2)ccc1OC (stereo not drawn) | 10
25 | COc1ccc(Nc2nc(C)cc(C)c2C#N)c(OC)c1 | 19.2
26 | Cc1ccccc1NC(=O)Cc1nc(-c2ccc3ccccc3c2)cs1 | 8.13
27 | Cc1ccccc1C(=O)Nc1ccc(N2CCOCC2)nc1 | -7.62
28 | CCC12CN3CC(CC)(CN(C1)C3c1cccnc1)C2=O (stereo not drawn) | 2.69
29 | Cn1nnnc1SCC(=O)N1c2ccccc2Sc2ccccc21 | 7.6
30 | COc1ccc(OC)c(CNC(=O)c2ccc(C)c(NC(=O)C3=C(C)OCCS3)c2)c1 | 8.54
31 | CCOC(=O)c1ccccc1NC(=O)c1c(O)[nH]c(=S)[nH]c1=O | 12.3
32 | Cc1ccc2c(c1)CCCN2C(=O)c1cccs1 | -2.83
33 | COc1cccc(-c2nnc3sc(-c4cccs4)nn23)c1 | 9.55
34 | O=C(COc1ccc(-c2nnco2)cc1)N1CCN(S(=O)(=O)c2ccc3ccccc3c2)CC1 | 5.97
35 | COc1ccc(CCNC(=S)Nc2ccc(C(C)C)cc2)cc1 | 12.8
36 | C#CCNC(=O)C1=C[C@@H](C2CCCCC2)C[C@@H](OCCCCO)O1 | 11.7
37 | NS(=O)(=O)c1cccc(NC(=O)COC(=O)CCCc2c[nH]c3ccccc23)c1 | 13.9
38 | Cl.N=c1n(CCN2CCOCC2)c2ccccc2n1CC(O)COc1ccccc1 (stereo not drawn) | -3.77

Row | Compound | hERG current change (%, negative = inhibition) at 1uM [%]
39 | CCc1ccc(N(C)S(=O)(=O)c2ccc3[nH]cc(C(=O)NCCN4CCOCC4)c(=O)c3c2)cc1 | 4.01
40 | O=C(CN1CCCC1=O)NC1(C(F)(F)F)NC(=O)N(Cc2ccccc2)C1=O (stereo not drawn) | 17.9
41 | CC(C)n1c(S(=O)(=O)O)nc2ccccc21 | 21.1
42 | c1cnc2ccc(C(c3nnnn3C3CCCC3)N3CCN(c4nc5ccccc5s4)CC3)cc2c1 (stereo not drawn) | -10.4
43 | CCc1ccc(N2CN(Cc3ccco3)CNC2=S)cc1 | 13.3
44 | COc1ccc2[nH]cc(C(=O)CN(C)C)c2c1 | 11.4
45 | O=C(NNC(=O)c1cc2cc(OC(F)(F)F)ccc2[nH]1)c1ccc(Cl)cc1 | 5.26
46 | CC(=O)Nc1cccc2c1C(=O)N(c1ccc(C)cc1)C2=O | 5.25
47 | COC(=O)c1cc(Br)c(=O)n(Cc2ccc(OC)c(OC)c2)c1 | 16.7
48 | COc1ccc(CCNC(=O)Cn2cnc3c(cnn3C(C)(C)C)c2=O)cc1OC | 3.2
49 | O=C(c1ccccc1)c1c(-c2ccccc2)[nH]n(-c2ccccc2)c(=O)c1=O | 13
50 | CC(=O)NC(CCS(C)(=O)=O)C(=O)Nc1cc(Cl)ccc1Cl (stereo not drawn) | 4.45
51 | O=C(CCl)N(c1ccccc1)C1CCCCC1 | 10.1
52 | COc1ccc([N+](=O)[O-])cc1N(CC(=O)Nc1ccccc1C(=O)N1CCOCC1)S(C)(=O)=O | 4.57
53 | CC1CC(C)(C)NC(=S)N1CCC(=O)Nc1ccc2c(c1)OCCO2 (stereo not drawn) | 14.9
54 | O=C(Nc1ccc(F)cc1)OCCOc1ccc([N+](=O)[O-])cc1 | -9.28
55 | Cc1cc(C)n(-c2nc3ccccc3c(=O)n2OCc2ccc(Cl)cc2)n1 | 5.48
56 | COc1cccc(C(=O)Oc2ccc3ccc(=O)oc3c2)c1 | 30.3
57 | CC(C)CNC(=O)CC(NCC(C)C)C(=O)O (stereo not drawn) | 11.1
